The record followed here is PubChem BioAssay AID1794747 (DTP/NCI, 2022).

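The test compound was applied at a single concentration to cells in 96-well plates for 48 hours, and percent growth was recorded.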 For part of its entries the source gives two or more results. They are shown here; other results are not. The source may hold further records. This drug was run again and again over the years, at its own concentration, as given; one value stands for one run. Signs of the kind (2×) say how often a value occurs here.

This assay concerns SNB-78. The experiment in a line: NCI-60 one-dose screen, 48 h (100 = growth as untreated, 0 = no growth, -100 = all killed). Conditions: 2.5 mM. The protocol: Growth inhibition of the SNB-78 human tumor cell line is measured as a screen for anti-cancer activity. Cells are grown in 96 well plates and exposed to the test compound for 48 hours. Compounds are tested at a single concentration, which is 10^-5 M for most compounds. The reported endpoint is percent growth (GI% or GIPRCNT), where numbers from 0 - 100% represent growth inhibition, and numbers from -100% - 0 represent cell death. For example, a value of 40 represents 60% growth inhibition. A value of 0 means no net growth occurred over the course of the experiment. A value of -40 indicates 40% of cells at the beginning of the experiment died by the end of the experiment. A value of -100 means all cells are dead at the end of the experiment.
NCI-60 Human Tumor Cell Lines Screen was performed using the standard one-dose NCI protocol, which is described in more detail at https://dtp.cancer.gov/discovery_development/nci-60/default.htm.
Compounds with GIPRCNT values below 10 were considered active. Activity score was based on GIPRCNT using the following formula: […]
Score is 0 for GIPRCNT values of 100 or above, 50 for GIPRCNT values of 0, and 100 for GIPRCNT values of -100.

As to `O=c1[nH]cc(F)c(=O)[nH]1`, the growth (runs of 1991) is recorded as 20.9, 54, 53.4, 72.6, 43.2, 44.4, 65.9, 39.3, 28.5, 28.3% and the growth (runs of 1992) is 48.8 (2×), 53.3 (2×), 37, 109, 12.6, 45.4, 55.5, 34.9, 31.3, 50.1 (2×), 41.6, 30.8, 25.5, 58.1 (2×), 44.8, 4.1, 35, 67.5, 37.2, 54.3 (2×), 43.3 (2×), 40, 68.8, 37.8, 70.3, 45, 44.4, 41.4, 86, 48.4, 46.2 (2×), 85.9, 107, 54.2, 38.3, 59.7, 126, 67.1, 52.8, 54.6, 28.7, 58.3, 42.2, 26.7, 4.36, 34.8, 52.6, -1.47, 31.5, 39.5, 42.3, 66.4, 40.7, 48.7, 45.5, -16.7, 65, 31.9, 36.4, 26.3, 161, 65.3, 32.5, 49.7, 34, 40.5, 60.9, 35.7, 74, 67.9, 32.1, 67.7, 59.5, 56.5, 51.3, 61.2, 40.4, 14.7, 46.4, -0.438, 32.8, 62.8, 94.4%.
